Reference: the supplement of paper PMC10126150
Values marked as one replicate rest on one cluster of the flow cell; about a third of the high ones do not repeat.

Tested on: ATP
Test: switch fluorescence ratio, 500 uM ATP over buffer (Cy3 cluster intensity, sum of 5 cycles each) (fold (ratio)); higher = stronger signal-on switching upon ATP binding; sequences stand for … in TCGTCGGCAGCGTCAGATGTGTATAAGAGACAGTTTTTTTTTTTTTTTTTTTTTTTTT…TC
Details: aptamer strand: ATP DNA aptamer (quencher-CACCTGGGGGAGTATTGCGGAGGAAGG + anchor), 100 nM annealed; ATP concentration: 500 uM; one replicate
Method in brief: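 After annealing to 100 nM quencher-labelled ATP aptamer, Cy3-labelled switching-strand clusters on a modified Illumina MiSeq flow-cell were imaged in selection buffer. A second image followed after 15 min with 500 uM ATP at 22 °C, and five such buffer/ATP cycles were done, each separated by NaOH stripping and re-annealing. The fluorescence ratio, averaged per switch-domain sequence, is summed target-cycle over summed buffer-cycle Cy3 intensity per cluster, with clusters outside 100-1000 RFU excluded.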
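Also: ATP exposure 15 min at 22 °C before imaging.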

Sequence	switch fluorescence ratio
TCTCTTTATG	0.993
ATGTCAGTAA	0.98
GCAATGCTGG	1.63
GGCCATAGGG	0.997
CGAGGGCAGA	1.07
CCTTTATGAG	1
TTCCGAGGGA	1.13
CAAGACCTC	0.96
TACAACATGC	1.09
GATACCGGCC	1.69
TTTGTTTATT	1.02
GAACCGTGAC	1.53
TCCGATGCCA	3.05
ATAACCGGGT	1.05
GAACCATTCG	1.05
TCTCGATAGT	0.98
GAATGGTGCT	1.03
ATCCTGTATA	0.988
CACATTATCC	1.13
CAGTTCCGCG	1.16
GTCGCTTTTT	1
GATCCAGTGG	1.09

Sequence	switch fluorescence ratio
AACCAAAGAT	0.989
CAATGGTTGT	1.02
ATTATTAGA	0.977
GGAGAATGAG	0.982
ATTAAGCACG	1.11
TTTACCTTTC	2.02
TGGGTTAACC	0.97
CATACATGTG	1.03
CACTTTAGGG	0.952
ATCCGGGGTC	1.08
CGCAGACTCA	4.7
ATTTTAGGAA	0.982
TGAAACTCTC	1.04
GGCAATTTTG	1.03
GCTCGACCGT	1
ATGTTCTCTA	1
AATGTTGAGA	1.01
TCTTGGGAGT	0.957
ATGTTGGAAC	1.04
CCAAGATAAC	2.27
CATTCAAAAA	0.96
TGAATACATG	0.944

Sequence	switch fluorescence ratio
TTGTACTCG	0.969
TTATGTTCTT	0.996
TTGTTAGTC	1
AAGAACAAGT	0.951
TAAGATGC	1.26
TTCAGAGTCT	1.07
ACATCAGATT	1.01
CGTCTCGTCA	1.01
TGCGGCAGCC	0.998
GCGTCACATT	1.01
GCTGCTGGT	1
CTGCGTTAGC	1.01
GGGACTGACG	1.04
TATGAATTCA	1.03
TTGGTGTAAC	1.05
GCTAATACAG	1.01
AACGGGGCTA	1.02
TCAACTTGGT	1.05
TTTGGACCAT	1.01
ACAAGAGACC	1.05
GACGCCGGGA	1.1
CAGTTAGAAG	1.04

Sequence	switch fluorescence ratio
CGCCTACTAA	1.03
CCACTATTGC	1.18
AATAAGGGCA	1.02
TTTTTAACG	0.975
CGCGCTCTAT	1.11
TAACCCTTTT	1.03
GATTGATG	1
CTCAATAGAA	1.03
CTTTGGGAGA	1
TTCAATCCCC	1.14
AAGTAAACAC	1.04
CTCCATGAT	1.09
TGCTTCCAGC	0.985
GACGAAACGT	1.08
AACGGCGGCT	1.06
GATTTAAATC	0.984
GATAAGGGAG	0.971
CCACCACCCC	1.31
GAACGGGAC	2.38
